According to the supplement of paper PMC8728848:
The other results are listed elsewhere or left out.

Legend:
Assay in all cases: glycan array binding signal (z-score within array); higher = stronger binding
Conditions in all cases: glycan notation: IUPAC condensed, linker removed; mutation: D22R
[1] = biological target: Gal(b1-4)GlcNAc(b1-3)Gal(b1-4)GlcNAc(b1-3)[Gal(b1-4)GlcNAc(b1-3)Gal(b1-4)GlcNAc(b1-6)]GalNAc
Procedure, shortened: (§1)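 From the Consortium for Functional Glycomics database, 3228 arrays were curated, keeping only those whose protein sequence was available. Binding is given as a within-array Z-score averaged across arrays sharing a protein sequence and across linkers. Negative Z-scores can be read as non-binding.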

[2] = biological target: Gal(b1-4)GlcNAc(b1-3)Gal(b1-4)GlcNAc(b1-6)[Gal(b1-3)]GalNAc
Procedure, shortened: as §1

[3] = biological target: Gal(b1-4)GlcNAc(b1-3)Gal(b1-4)[Fuc(a1-3)]GlcNAc(b1-3)Gal(b1-4)[Fuc(a1-3)]GlcNAc
Procedure, shortened: as §1

[4] = biological target: Gal(b1-4)GlcNAc(b1-3)GalNAc
Procedure, shortened: as §1

[5] = biological target: Gal(b1-4)GlcNAc(b1-3)[Fuc(a1-3)GlcNAc(b1-6)]Gal(b1-4)Glc
Procedure, shortened: as §1

[6] = biological target: Gal(b1-4)GlcNAc(b1-3)[Gal(b1-4)GlcNAc(b1-6)]Gal(b1-4)GlcNAc
Procedure, shortened: as §1

[7] = biological target: Gal(b1-4)GlcNAc(b1-3)[GlcNAc(b1-6)]Gal(b1-4)GlcNAc
Procedure, shortened: as §1

[8] = biological target: Gal(b1-4)GlcNAc(b1-6)Gal(b1-4)GlcNAc
Procedure, shortened: as §1

[9] = biological target: Gal(b1-4)GlcNAc(b1-6)GalNAc
Procedure, shortened: as §1

[10] = biological target: Gal(b1-4)GlcNAc(b1-6)[Gal(b1-3)]GalNAc
Procedure, shortened: as §1

[11] = biological target: Gal(b1-4)GlcNAc(b1-6)[Gal(b1-4)GlcNAc(b1-3)]GalNAc
Procedure, shortened: as §1

[12] = biological target: Gal(b1-4)GlcNAc6P
Procedure, shortened: as §1

[13] = biological target: Gal(b1-6)Gal
Procedure, shortened: as §1

[14] = biological target: Gal3S(b1-3)GalNAc
Procedure, shortened: as §1

[15] = biological target: Gal3S(b1-3)GlcNAc
Procedure, shortened: as §1

[16] = biological target: Gal3S(b1-3)[Fuc(a1-4)]GlcNAc
Procedure, shortened: as §1

[17] = biological target: Gal3S(b1-4)Glc
Procedure, shortened: as §1

[18] = biological target: Gal3S(b1-4)Glc6S
Procedure, shortened: as §1

[19] = biological target: Gal3S(b1-4)GlcNAc
Procedure, shortened: as §1

[20] = biological target: Gal3S(b1-4)[Fuc(a1-3)]Glc6S
Procedure, shortened: as §1

[21] = biological target: Gal3S(b1-4)[Fuc(a1-3)]GlcNAc
Procedure, shortened: as §1

[22] = biological target: Gal3S(b1-4)[Fuc(a1-3)]GlcNAc6S
Procedure, shortened: as §1

[23] = biological target: Gal3S4S(b1-4)GlcNAc
Procedure, shortened: as §1

[24] = biological target: Gal3S6S(b1-4)GlcNAc
Procedure, shortened: as §1

[25] = biological target: Gal3S6S(b1-4)GlcNAc6S
Procedure, shortened: as §1

[26] = biological target: Gal4S(b1-4)GlcNAc
Procedure, shortened: as §1

[27] = biological target: Gal4S6S(b1-4)GlcNAc
Procedure, shortened: as §1

[28] = biological target: Gal6P(b1-4)GlcNAc
Procedure, shortened: as §1

[29] = biological target: Gal6S(b1-3)GlcNAc
Procedure, shortened: as §1

[30] = biological target: Gal6S(b1-3)GlcNAc6S
Procedure, shortened: as §1

[31] = biological target: Gal6S(b1-4)Glc
Procedure, shortened: as §1

[32] = biological target: Gal6S(b1-4)Glc6S
Procedure, shortened: as §1

[33] = biological target: Gal6S(b1-4)GlcNAc
Procedure, shortened: as §1

[34] = biological target: Gal6S(b1-4)GlcNAc6S
Procedure, shortened: as §1

[35] = biological target: GalNAc(a1-3)Gal
Procedure, shortened: as §1

[36] = biological target: GalNAc(a1-3)GalNAc
Procedure, shortened: as §1

[37] = biological target: GalNAc(a1-3)GalNAc(b1-3)Gal(a1-4)Gal(b1-4)Glc
Procedure, shortened: as §1

[38] = biological target: GalNAc(a1-3)GalNAc(b1-3)Gal(a1-4)Gal(b1-4)GlcNAc
Procedure, shortened: as §1

[39] = biological target: GalNAc(b1-3)Gal
Procedure, shortened: as §1

[40] = biological target: GalNAc(b1-3)Gal(a1-4)Gal(b1-4)GlcNAc
Procedure, shortened: as §1

[41] = biological target: GalNAc(b1-3)Gal(a1-4)Gal(b1-4)GlcNAc(b1-3)Gal(b1-4)Glc
Procedure, shortened: as §1

[42] = biological target: GalNAc(b1-3)Gal(a1-6)Gal(b1-4)Glc
Procedure, shortened: as §1

[43] = biological target: GalNAc(b1-3)GalNAc
Procedure, shortened: as §1

[44] = biological target: GalNAc(b1-3)GlcNAc
Procedure, shortened: as §1

[45] = biological target: GalNAc(b1-4)Gal(b1-4)Glc
Procedure, shortened: as §1

B1: MpL2 (Macrolepiota procera) (protein)
chain: MSTQVSSGQTYKITNVKAGTVIRLSGEDNKSIIGYPYHSGKNQQWTFNWTGKAWTLRSASSGSYLGIEGTPADGTRLVAVNDPFEWHIWRDEANENAFRIFVPFTNYNLDLSGYGDTTPGTPVQLWWTWEGLHQTWTIDRP
glycan array binding signal (z-score) [1]: 2.76 | glycan array binding signal (z-score) [2]: 1.3 | glycan array binding signal (z-score) [3]: -0.151 | glycan array binding signal (z-score) [4]: -0.076 | glycan array binding signal (z-score) [5]: 0.057 | glycan array binding signal (z-score) [6]: -0.181 | glycan array binding signal (z-score) [7]: -0.788 | glycan array binding signal (z-score) [8]: -1.1 | glycan array binding signal (z-score) [9]: 0.305 | glycan array binding signal (z-score) [10]: -0.591 | glycan array binding signal (z-score) [11]: 0.027 | glycan array binding signal (z-score) [12]: -0.624 | glycan array binding signal (z-score) [13]: -0.78 | glycan array binding signal (z-score) [14]: -0.228 | glycan array binding signal (z-score) [15]: -0.443 | glycan array binding signal (z-score) [16]: -0.118 | glycan array binding signal (z-score) [17]: -0.052 | glycan array binding signal (z-score) [18]: -0.185 | glycan array binding signal (z-score) [19]: -0.614 | glycan array binding signal (z-score) [20]: 0.635 | glycan array binding signal (z-score) [21]: -0.293 | glycan array binding signal (z-score) [22]: -0.262 | glycan array binding signal (z-score) [23]: -0.829 | glycan array binding signal (z-score) [24]: -0.002 | glycan array binding signal (z-score) [25]: 0.189 | glycan array binding signal (z-score) [26]: -0.962 | glycan array binding signal (z-score) [27]: -0.517 | glycan array binding signal (z-score) [28]: 0.269 | glycan array binding signal (z-score) [29]: -0.297 | glycan array binding signal (z-score) [30]: -0.463 | glycan array binding signal (z-score) [31]: -0.275 | glycan array binding signal (z-score) [32]: 0.062 | glycan array binding signal (z-score) [33]: -0.327 | glycan array binding signal (z-score) [34]: -0.209 | glycan array binding signal (z-score) [35]: -0.306 | glycan array binding signal (z-score) [36]: 0.034 | glycan array binding signal (z-score) [37]: -0.218 | glycan array binding signal (z-score) [38]: -0.347 | glycan array binding signal (z-score) [39]: -0.214 | glycan array binding signal (z-score) [40]: 0.367 | glycan array binding signal (z-score) [41]: 0.074 | glycan array binding signal (z-score) [42]: -0.923 | glycan array binding signal (z-score) [43]: -0.475 | glycan array binding signal (z-score) [44]: -0.142 | glycan array binding signal (z-score) [45]: -0.084
